# In all, about 39,000 compounds went through this assay and about 220 (0.56%) showed activity. Some of the results follow.
# System: Escherichia coli K-12 BW25113
# Experiment: relative growth (OD600 normalised to plate interquartile mean) (fraction); higher = less growth inhibition, active = 0.2 or less
# Conditions: 50 µM; LB; incubation time: overnight (16-24 h)
# 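Further: static incubation at 37 °C against the wild-type strain, values averaged over two biological replicates.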
row,SMILES,relative growth
1,C=CC[C@@H](CC(=O)NCCO)C(=O)N[C@H](COC(=O)[C@H](CC=C)CC(=O)OC(C)(C)C)Cc1ccccc1,inactive: 0.964
2,C[C@@H]1CN([C@H](C)CO)C(=O)c2cc(C#CCN(C)C)cnc2O[C@H]1CN(C)S(C)(=O)=O,inactive: 0.998
3,C[C@H](CO)N1C[C@H](C)[C@@H](CN(C)Cc2ccc(Cl)c(Cl)c2)OCCCC[C@H](C)Oc2ccc(NC(=O)Nc3ccc(C(F)(F)F)cc3)cc2C1=O,inactive: 0.985
4,Cc1noc(C)c1NC(=O)N(C)C[C@@H]1OCCCC[C@H](C)Oc2ccc(NC(=O)CCC(F)(F)F)cc2C(=O)N([C@@H](C)CO)C[C@H]1C,inactive: 0.998
5,C[C@@H]1CN([C@H](C)CO)C(=O)c2cccc(NC(=O)C3CC3)c2O[C@H]1CN(C)S(=O)(=O)c1ccccc1,inactive: 0.983
6,C[C@@H]1CN([C@@H](C)CO)C(=O)Cc2cc(NC(=O)Nc3ccc(C(F)(F)F)cc3)ccc2O[C@H]1CN(C)C(=O)Nc1ccc(F)cc1,inactive: 1.01
7,CN1C(=O)c2cc(NC(=O)C3CCCC3)ccc2OC[C@H]2O[C@@H](CC(=O)NCCc3ccncc3)CC[C@@H]21,inactive: 0.982
8,Cc1noc(C)c1NC(=O)Nc1ccc2c(c1)CC(=O)N([C@@H](C)CO)C[C@@H](C)[C@@H](CN(C)C(=O)NC(C)C)O2,inactive: 0.98
9,C[C@@H]1CN([C@H](C)CO)C(=O)c2cc(NS(=O)(=O)c3cccs3)ccc2O[C@@H](C)CCCCO[C@H]1CN(C)Cc1ccccc1,inactive: 0.995
10,Cc1ccc(S(=O)(=O)Nc2ccc3c(c2)C(=O)N([C@H](C)CO)C[C@@H](C)[C@@H](CN(C)C(=O)Nc2cccc4ccccc24)OCCCC[C@@H](C)O3)cc1,inactive: 1.03
11,COc1ccc(CN(C)C[C@H]2OCCCC[C@H](C)Oc3ccc(NC(=O)Nc4ccccc4)cc3C(=O)N([C@@H](C)CO)C[C@H]2C)cc1,inactive: 0.899
12,COCC(=O)N1C[C@]2(C1)CN([C@@H](CO)c1c2c2ccc(cc2n1C)OC)C(=O)CN1CCOCC1,inactive: 1.02
13,C[C@@H]1CCCCO[C@H](CN(C)C(=O)NC2CCCCC2)[C@H](C)CN([C@H](C)CO)C(=O)c2cc(NC(=O)Nc3ccc(C(F)(F)F)cc3)ccc2O1,inactive: 1
14,C[C@@H]1COS(=O)(=O)N1,inactive: 1.01
15,C[C@@H]1CCCCO[C@@H](CN(C)S(=O)(=O)c2cccs2)[C@@H](C)CN([C@@H](C)CO)C(=O)c2cc(NC(=O)Nc3ccc(F)cc3)ccc2O1,inactive: 0.978
16,O=C(C[C@H]1CC[C@@H]2[C@H](COC[C@H](O)CN2S(=O)(=O)c2ccccc2F)O1)NCc1ccccc1Cl,inactive: 0.992
17,C[C@@H]1CCCCO[C@@H](CN(C)C(=O)Cc2ccccc2)[C@H](C)CN([C@@H](C)CO)C(=O)c2cc(NC(=O)c3ccccc3)ccc2O1,inactive: 0.969
18,C[C@H](CO)N1C[C@H](C)[C@@H](CN(C)Cc2ccccc2)OCCCC[C@H](C)Oc2ccc(NC(=O)Nc3ccc(C(F)(F)F)cc3)cc2C1=O,inactive: 0.998
19,COc1cccc(C#Cc2ccc3c(c2)O[C@@H](CN(C)C(=O)CN2CCOCC2)[C@H](C)CN([C@@H](C)CO)S3(=O)=O)c1,inactive: 1.02

row,SMILES,relative growth
1,COc1ccccc1CNC(=O)C[C@@H]1C[C@H]2c3cc(NC(=O)c4cccnc4)ccc3O[C@H]2[C@@H](CO)O1,inactive: 0.977
2,COc1cc2c(cc1OC)-c1c(oc3c4c(ccc3c1=O)OC(C)(C)C=C4)CO2,inactive: 1.11
3,C[C@@H]1CN([C@@H](C)CO)S(=O)(=O)c2ccc(C#Cc3cccnc3)cc2O[C@H]1CN(C)C(=O)Nc1ccc2c(c1)OCO2,inactive: 1
4,COc1ccc(S(=O)(=O)N(C)C[C@H]2Oc3c(cccc3N(C)C)C(=O)N([C@@H](C)CO)C[C@H]2C)cc1,inactive: 0.994
5,C[C@@H]1CN([C@@H](C)CO)C(=O)Cc2cc(NC(=O)Cc3cn(C)c4ccccc34)ccc2O[C@H]1CN(C)S(=O)(=O)c1cn(C)cn1,inactive: 1.02
6,C[C@H]1CCCCO[C@H](CN(C)Cc2ccc(C(=O)O)cc2)[C@@H](C)CN([C@@H](C)CO)C(=O)c2cc(NC(=O)Nc3cccc4ccccc34)ccc2O1,inactive: 1.01
7,Cn1c(=O)c2c(ncn2CC(=O)Nc2nc3ccccc3[nH]2)n(C)c1=O,inactive: 0.996
8,c1ccc2c(c1)Cc1cccnc1-2,inactive: 0.979
9,COc1ccc(NC(=O)Nc2ccc3c(c2)C(=O)N([C@H](C)CO)C[C@H](C)[C@H](CN(C)Cc2ccc(C(F)(F)F)cc2)OCCCC[C@H](C)O3)cc1,inactive: 0.999
10,C[C@@H]1CN([C@H](C)CO)S(=O)(=O)c2ccc(C#CC3(O)CCCC3)cc2O[C@@H]1CN(C)C(=O)c1ccncc1,inactive: 1.03
11,C[C@@H]1CN([C@H](C)CO)C(=O)c2cc(NS(=O)(=O)c3cn(C)cn3)ccc2O[C@@H]1CN(C)Cc1ccc(C(=O)O)cc1,inactive: 0.981
12,C[C@@H]1CCCCO[C@@H](CN(C)C(=O)Nc2ccc(C(F)(F)F)cc2)[C@@H](C)CN([C@H](C)CO)C(=O)c2cc(N(C)C)ccc2O1,inactive: 0.984
13,O=C1c2ccccc2-c2nc(-c3ccccc3)cc3cccc1c23,inactive: 0.98
14,C[C@H](CO)N1C[C@H](C)[C@@H](CN(C)C(=O)Nc2ccccc2)OCCCC[C@H](C)Oc2ccc(NS(=O)(=O)c3ccc(Cl)cc3)cc2C1=O,inactive: 1
15,COc1cccc(C(=O)c2ccccc2)c1,inactive: 0.849
16,C[C@@H]1CCCCO[C@H](CN(C)Cc2ccc3c(c2)OCO3)[C@H](C)CN([C@H](C)CO)C(=O)c2cc(NC(=O)C3CCCCC3)ccc2O1,inactive: 1.03
17,CCC(C)(C)C(=O)C(=O)N1CCCC[C@H]1C(=O)O[C@@H](CCc1ccc(OC)c(OC)c1)c1cccc(OCC(=O)NCCc2ccc(O)cc2)c1,inactive: 1.02
18,C[C@@H]1CN([C@H](C)CO)C(=O)c2cccc(NC(=O)Nc3ccc(C(F)(F)F)cc3)c2O[C@@H]1CN(C)CC1CCCCC1,inactive: 0.966

# From the supplement of paper PMC9446081
